The supplement of paper PMC10185492
Some of the results follow. These are enrichments in a pooled selection; single values are uncertain.

Test system: SARS-CoV-2 3CLpro (nsp5)
Assay: substrate phage enrichment score (protease-eluted vs HEPES control, +1 offset) (ratio); higher = better cleaved substrate
Conditions: selection round: 4; protease elution time: 15 min
Method: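 Random heptapeptide substrate phage display (M13 pIII fusion, heptapeptide between an N-terminal biotinylated AviTag GLNDIFEAQKIEWHE and pIII; phages immobilised on streptavidin) eluted by cleavage with 50 nM protease in 20 mM HEPES at 37 °C. Selected phages were NGS sequenced, and the enrichment score is (reads in protease sample + 1)/(reads in HEPES blank-selection control + 1).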

Substance | substrate phage enrichment score
TTRDPAR | > 27
VLIQCGP | 4
QHGSIGR | 11.7
RAAAQHQ | 0.667
SRDNSIP | 28
NPNGLIR | 2.14
ASGNIGS | 0.423
AETHQAT | > 29
RQRSCLQ | > 67
PGLFLRD | 1.18
TYFQGGS | 2.55
LGLPNLQ | 28.3
GALYKPA | 1.54
HGNGSLH | 3.4
ESLKNPH | 1.89
REEVCAR | 0.289
RTSGVRE | 7.25
SQIGDET | 1.04
TAPSMPA | 0.353
CVYRTNG | 1.18
INVNIRP | > 49
NSTCPLT | 0.0741
DVNVSEQ | > 49
YGLMNRG | 2.6
SFGTQLQ | > 48

Substance | substrate phage enrichment score
ATRLQAV | > 351
KQNTRLP | 0.571
TSSRNPR | 1
VHRNPLS | 0.952
WRRTPAA | > 56
AKVSRWG | > 31
IRESKLN | 2.33
CGPSRVP | > 22
DDDKSPL | > 25
SENAVAQ | 19.5
PAKCGCA | 3.67
EAAHHHH | 0.712
SARQWAQ | 1.91
QHCHTVK | > 45
TGVVGTT | 2.69
GTLNTAP | 6.67
LHEKCRW | > 25
QRTSVLH | > 22
VKTHGSV | 2.53
ASTGPKM | 1.8
LPRANYG | 1.36
TARETGM | 4.23
ELNSRAG | 19.5
RECFGDM | 13.6
LMTAPSG | > 21

Substance | substrate phage enrichment score
NRCVTWQ | 11.3
AACEFMA | 4.62
SSLKPNA | > 24
FSSIGME | > 25
DNAAAHH | 1.01
EEDGASR | 6.33
AYYRRPD | 2.83
GAAFNTK | > 28
LMALPKA | 3.67
PQAAHHH | 0.5
MSEAGNR | 0.25
CGHLLKD | 47.5
CRCCQLG | > 55
SPHTNSS | 6.67
RSATTNQ | 2.05
SLNSPKP | 1.75
ASDVKNP | 0.0909
NCNVNPN | > 25
LKDSPPQ | 15.5
IQHECQQ | > 61
QDVRQTH | 0.8
KRSCILQ | > 22
RSATSPD | > 41
AVCDYAR | 0.625
SSGEAVL | 1.45

Substance | substrate phage enrichment score
AKLQCCT | 30
GHQAVLQ | > 27
CRSRPEF | 1.26
TNSAAHH | 0.294
SHMPTQS | 0.00684
AKNSLGP | 2.62
QGPQGTS | 1
NCRVILQ | > 25
AYCDDLR | 11
RQGCRST | 7.33
CAHSYLQ | > 75
FNVEKLT | > 53
GSILPKG | 15
HARCQWQ | > 57
NKVRLHA | 25.5
MSLERCF | > 32
RETPGGA | 6.75
RSSTLLQ | > 49
GPSLKYR | 5.11
HQNTRIP | 1.3
SAAAQKH | 1.04
TFPRQVP | 1.68
CRIMNLQ | > 38
FCHHPTT | > 27
QIQRQES | 5.33

Substance | substrate phage enrichment score
TSEALTR | > 43
SYECFRT | 0.312
DRQRAMK | 1.07
EPAQLCS | > 40
GSSVILQ | > 69
SERSTVQ | 4.44
LCPSAAA | 0.917
QRTNVLQ | 4.6
SAEDCME | 11.2
RDRANHA | 1.52
VHRPLLR | 3.6
EHVTEMQ | > 24
AWEQKTT | > 29
PSTRDLK | > 24
STSGSTT | > 32
PSWPVDC | 5.25
HSCNVIE | > 21
RVLQGSV | > 26
ATQKTRG | > 46
NRNQLSS | 2.9
TNGTYSK | > 41
RILSYDR | 3.82
MEATLQS | > 120
YAPRCHW | 0.25
RFRQEER | 2.88

Substance | substrate phage enrichment score
SPVPYMQ | 11
HRGLGHS | 5
RAAAHHQ | 0.897
ALNPLLM | > 46
RNVSNLQ | 33
YVDSALR | 1.15
SFRCDVS | > 45
MTSRDPG | > 21
YSDGRGN | > 21
HRKDVDS | 10.5
AYISTQT | > 46
TQCTCVP | > 25
RLNFKGY | 0.0339
QCPGDRP | > 26
YAAAHHH | 0.628
AESNSVP | 2.41
ATGGRRC | > 42
ACRCEIQ | > 92
STKEADQ | 2
ACRRNLT | > 50
TTAVSGH | 8
SSAKEIP | > 24
RHFQGGS | 1.9
GWSAEHR | 0.636
GVRPHII | 0.857

Substance | substrate phage enrichment score
HTTNHEC | > 22
SAPQANP | 0.257
SAAAHHN | 1.04
RRQASQP | 1.96
HLEQPFN | > 85
QSLDRSR | > 24
NGACPCG | > 28
SDAAAHH | 0.04
SIPVYSR | > 28
HSQTPSE | 2
RPGDSPS | 0.562
CPCKHNP | 1.2
KTPSSLM | 4.33
CQRDTSG | > 21
NEAAHHH | 0.634
SAAAPHQ | 2.02
KTHNTTR | 6.33
IQNRVVQ | 0.533
CAPSLQG | > 27
SGGSAAA | 0.368
FGVNPYY | 0.25
LRGCSLR | 13.5
EAHTGTP | 1.56
IGLPRER | 0.179
SSSTSTG | > 22

Substance | substrate phage enrichment score
QGTHTFL | 5.5
LTQVNQR | 3
SLTIFQG | 2.61
GAPAHHH | 2.5
QAMGSKS | > 73
IHHHHGA | 0.667
SLSGYYR | > 27
RNHSTKS | 2.07
SRHTELQ | > 23
APLPVLQ | > 23
VSRVYEG | 2.07
KSGTEYF | 3
QPYHIDR | 7.11
DVEVSSR | > 21
RCVQVQG | > 31
YGEGTLS | 2.83
RATTKLQ | > 208
GIRPPKM | > 23
VTNPRYG | > 35
KTDGAQR | 1.67
IPAAHHH | 1.18
LQAHLRC | 1.56
SGDLKPA | 1.43
RTSGSVK | > 77
NSYTELQ | > 59

Substance | substrate phage enrichment score
PRDTRDS | > 27
KYTEPSN | > 49
PCCSRLQ | 35.5
RYWAQLQ | > 21
YNSAAHH | 0.294
AHNYSPR | 6
TATAHPQ | > 41
TQCKYVG | 1.46
RRCVARS | 0.911
SAVAHHH | 0.571
CAPVHDR | > 51
TGPSFLQ | > 53
SQGKSNL | 1.09
GALSSPR | 9
ATGTDMH | 1
RADAASQ | 0.769
ELLPGSL | 0.481
SVWNTQL | 21.2
LSCMRVR | 0.444
LQRAERR | > 23
YEAAHHH | 0.6
AVSCQHD | 1.5
GNQRVQR | 0.929
PTHVGTM | > 25
NFQGGSA | 1.18

Substance | substrate phage enrichment score
NDNGKTW | 5.86
SKNATCI | 1.69
QHTATPE | > 22
NLNAHLQ | 39
SENQSMR | 14.2
SKAAHHH | 0.71
DGSAAAH | 0.714
MQSHNQL | > 70
SQFPSNR | > 29
EPSFQGG | > 72
GMRTQVQ | 10
SQLYFQG | 0.625
MTPGSQY | 8.4
HMAAHHH | 1
SQCAPLK | > 40
IKYPRLQ | 23
AASIILQ | 21
KSHLQPH | 0.833
VRGLTDC | > 27
GSSSELQ | 10.7
TSQIQFQ | > 36
DQKQGAR | 2.82
PTYDMNL | 1.75
RAAWQSR | 1.18
RSSVNPA | 0.149

Substance | substrate phage enrichment score
RERQFCD | 1.61
TTGVSRQ | > 90
SPSGAKS | > 23
DRGCILN | > 43
CRDVTRM | 0.25
NDVPVRN | > 21
RIGGQQA | 7.67
LCSSAPD | 2.71
SAVWSPG | 1.37
MQNQHDL | 10
SDGLPAE | > 70
WQHKSRQ | 4.5
VNKAGIS | > 30
VRTEDAW | > 38
CDLNFQG | > 35
WHNGSSW | 2.62
SVLQSAH | > 25
SCWTSAK | > 25
RASLLHS | > 29
KCNSQEN | > 81
CVPTKHR | 11
HYKGMEW | 1.33
TSSYSRA | 0.417
AQPNAGQ | 16
VSGPPGH | 0.0938

Substance | substrate phage enrichment score
ERHEPTF | > 59
THRGAPR | > 24
CAETAKE | 0.75
EASTWGA | 2.27
RLYFQGG | 0.681
PTEMSNQ | > 63
CSSNLMQ | > 22
QPLITPG | 3.12
IEAAHHH | 0.791
TTCEYGS | > 36
CGVEARS | 0.421
GVAAHHH | 0.609
MQCQSPR | 0.286
TYHLTDQ | 3.58
PCGVLLF | 0.087
ASSAKVS | 4.22
NAQESRL | 0.441
LKYLEGQ | 0.846
CAAAHHN | 0.796
STLGGTT | 1.56
CSVEGHS | 13
RAAAHQH | 1.45
SSASAAE | > 27
WEEYTTN | > 24
ATHVLNQ | 0.5

Substance | substrate phage enrichment score
GTAVLHC | > 28
AHCPLRV | 2.29
TKAQEKA | 7.9
CREPIYR | 1.88
KNHTTKQ | 17
KEVRSPP | > 25
TECRPGQ | > 38
RRTILHA | > 52
QARLQAC | > 95
CPKGELT | 1.86
QQQGSAE | 0.812
ELFAYPQ | > 83
FQCWCAE | > 27
NGVCMTH | > 26
TQINAET | 0.211
DKSGLTA | 2.25
EFHSQAT | 9.86
AAGTGEC | > 24
ATRQRLT | > 27
SRSSQKQ | > 24
VAASPAG | 1.93
ASYESAT | 2.62
STVERTM | > 44
GMPTWNR | 2
HGSQHNG | 1.63

Substance | substrate phage enrichment score
SMNSGGP | 3.8
QRSTCPK | 0.967
TSYPQAR | > 23
TQGGSAA | 1.44
CLEQGNY | 1.7
SRTYLQS | 13.5
VRNDGTT | > 22
MGETGLH | 0.0833
GTRWNPT | 2.3
AHVPPLS | 0.643
SERPLSG | 0.917
TNRALIT | 5.18
STTAHHH | 0.788
PHCAAAH | 4.4
CFRTGNI | > 26
QSSCGQG | 4.3
SKISGCR | > 31
KSRERPQ | 0.48
VCSGNRF | 3.16
EYTQDRG | > 32
AHHHHHH | 1.64
DHTVLQC | > 59
RSARLHC | 4.5
TTLTPQR | > 22
ATHNDMR | 0.265

Substance | substrate phage enrichment score
ANATPVG | 2.14
CDAKTGT | 26.5
SSDANCS | > 50
VGAVRGT | 1.38
PERVRQP | 1.4
EPAPDFW | 11.5
DVTTTWQ | 10.5
TSRPCAG | 5.67
ARKDVAL | 2.29
QYAKDRE | 5.43
GLMSSGV | 2.62
STRRDYG | > 31
MRSTSLQ | > 90
PSLHSAG | > 23
AHTKSEK | > 31
NSRHHHH | > 21
APAHHHH | 1.33
